These results are taken from PubChem BioAssay AID1508624 (National Center for Advancing Translational Sciences (NCATS), 2021).

SMILES strings stand for the structures. About 120 (0.25%) of roughly 48,000 compounds were called active. Inconclusive results (about 4%) are left out. The call rests on the fitted dose curve; in most records, active means well fitted activation curve with a large enough effect; inconclusive means small, poorly fitted or top-dose-only effect, or another doubt; inactive means no such curve, though single readings can be large or run the other way. Some of the results follow.
Potency means the concentration at half of the fitted maximal effect.

This assay can be described thus: Primary qHTS for Identification of Small Molecule Activators of Huntingtin-Antisense Promoter Activity. Further: nearly all actives have a fitted effect of over 55% in size. As to conditions: HEK293 HTT-AS promoter firefly luciferase reporter (activity 0% = vehicle and -100% = no light), 24 h; series mostly up to 57.5 µM; activity change, positive = activation: at the top concentration. An outline of the steps:
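HEK293 Fluc reporter, 2,500 cells/well, 24 h pre-culture; cpds up to 57.5 uM final, 24 h 37 degrees C; Dual-Glo, 10 min RT; normalized vehicle = 0%, zero RLU = -100%.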
Background: qHTS replaces the single test concentration by a dilution series.
Consider `O=C(CSc1nc2ncccc2[nH]1)Nc1cc(F)ccc1F`, for which the “activity change, positive = activation” value was inactive: -6.2%.

Regarding `O=C(CCn1c(=O)c2cccn2c2cccnc21)NCc1ccccc1Cl`, the “activity change, positive = activation” value was inactive: -3.18%.

`COc1cccc(N2CCN(C(=O)C3CCCN(S(=O)(=O)c4cccc5nsnc45)C3)CC2)c1` (stereo not given): the “activity change, positive = activation” value is inactive: -40.8%.

For `O=C(NCC(c1cccnc1)N1CCN(c2ccccc2F)CC1)C(=O)Nc1ccc(F)cc1F` (stereo not given), the “activity change, positive = activation” value was inactive: -8.82%.

Take `Cc1ccc(CNC(=O)CCc2c(C)nn(-c3ccc(N4CCOCC4)nn3)c2C)cc1`: the “activity change, positive = activation” value is inactive: -2.88%.

Take `CCOc1ccc(C(=O)c2cn(CC(=O)Nc3ccc4c(c3)OCO4)c3ccc(OC)cc3c2=O)cc1`: the “activity change, positive = activation” value is inactive: -15.4%.

Turning to `CCn1c(=O)n(-c2ccc3c(c2)OCO3)c2nc(-c3ccc(C(C)C)cc3)nc(C(N)=O)c21`, the “activity change, positive = activation” value was inactive: 0.478%.

Take `CCOc1ccc2c(c1)c(=O)c(C(=O)c1ccc(CC)cc1)cn2CC(=O)Nc1ccccc1OC`: the “activity change, positive = activation” value was inactive: -14.8%.

Turning to `COc1ccc(OC)c(NC(=O)Cn2c(=O)c3cccn3c3ccccc32)c1`, the “activity change, positive = activation” value is inactive: 12%.

`Cc1ccc(Cl)cc1NC(=O)CSc1nc2ccccc2c2nc(-c3ccccc3)nn12`: the “activity change, positive = activation” value was inactive: -4.82%.

Take `CCOC(=O)C1CCN(C(=O)c2nn(-c3ccc(OC)c(Cl)c3)c(=O)c3c2c2ccccc2n3C)CC1`: the “activity change, positive = activation” value is inactive: -6.73%.

As for `Cc1ccc(S(=O)(=O)c2cn(CC(=O)Nc3cccc(Cl)c3)c3ccccc3c2=O)cc1`, the “activity change, positive = activation” value was inactive: -30.7%.

For the compound `CCn1c2ccccc2c2cc(CN3CCN(Cc4cc(OC)c(O)c(OC)c4)CC3)ccc21`, the “activity change, positive = activation” value is inactive: -6.18%.

Turning to `COc1ccc(N2CCN(c3ccc(-c4nc(-c5ccccc5)no4)cc3[N+](=O)[O-])CC2)cc1`, the “activity change, positive = activation” value was inactive: -43.7%.

Turning to `O=C(Nc1cccc(Cl)c1Cl)c1ccc2c(c1)N(Cc1cccc(Cl)c1)C(=O)c1ccccc1S2=O` (stereo not given), the “activity change, positive = activation” value is inactive: -9.96%.

With `COc1cc2[nH]c(=O)n(Cc3ccc(C(=O)N4CCN(c5ccc(Cl)cc5)CC4)cc3)c(=O)c2cc1OC`, the “activity change, positive = activation” value was inactive: -49.9%.

For the compound `Cc1ccc(C)c(NC(=O)Cn2nc(C)c3nn(-c4ccc(Cl)cc4)c(C)c3c2=O)c1`, the “activity change, positive = activation” value was inactive: -26.9%.

Regarding `Cc1ccc(N(Cc2cccs2)C(=O)C(C)Oc2ccc(Cl)c(C)c2)cc1` (stereo not given), the “activity change, positive = activation” value was inactive: -34.6%.

`Cc1ccc(NC(=O)c2sc3ncn(Cc4cccc(F)c4)c(=O)c3c2C)c(Br)c1`: the “activity change, positive = activation” value is inactive: 8.85%.

As for `CCOc1ccccc1NC(=O)CCCc1nc(-c2ccccc2Cl)no1`, the “activity change, positive = activation” value was inactive: -17.3%.

As to `COc1ccc(CNC(=O)CCS(=O)(=O)c2cc(Br)cc3c2N(C(C)=O)C(C)C3)cc1` (stereo not given), the “activity change, positive = activation” value is inactive: -14.3%.

Turning to `CCOc1ccc(CCNC(=O)c2cc3c(=O)n(CC)c4ccccc4c3s2)cc1OCC`, the “activity change, positive = activation” value was inactive: -15.8%.

On to `CCc1cccc(NC(=O)CSc2nncn3c2cc2sccc23)c1`, for which the “activity change, positive = activation” value is inactive: -24.8%.

Regarding `COc1ccc(S(=O)(=O)NCCSc2nnnn2-c2ccccc2)cc1OC`, the “activity change, positive = activation” value was inactive: -27.9%.

`Cc1ccc(Cl)cc1N1CCN(C(=O)CN2C(=O)COc3ccc(S(=O)(=O)N4CCCCCC4)cc32)CC1`: the “activity change, positive = activation” value is inactive: -37.9%.

Turning to `CC(C)CCNC(=O)c1ccc2c(c1)NC(=O)C(C(C)C)N2` (stereo not given), the “activity change, positive = activation” value was inactive: -7.19%.

Consider `Cc1c(C(=O)O)c(O)cc2c1C(=O)c1c(O)c([C@@H]3O[C@H](CO)[C@@H](O)[C@H](O)[C@H]3O)c(O)c(O)c1C2=O`, for which the “activity change, positive = activation” value was inactive: -26.8%.

`Cc1c(C)n(Cc2ccccc2)c2ccc(C(=O)N3CCN(c4ccc(F)cc4)CC3)cc12`: the “activity change, positive = activation” value is inactive: -14.6%.

In the case of `Cn1cnc(S(=O)(=O)N2CCCC(C(=O)NCc3ccc(Cl)cc3)C2)c1` (stereo not given), the “activity change, positive = activation” value was inactive: -13.8%.

Turning to `CCN(CC)S(=O)(=O)c1ccc2c(c1)N(CC(=O)N1CCN(c3ccc(OC)cc3)CC1)C(=O)CO2`, the “activity change, positive = activation” value is inactive: -10.5%.

Turning to `Cc1ccccc1Nc1c(-c2cccc(Cl)c2)nc2ncccn12`, the “activity change, positive = activation” value is inactive: -4.51%.

Turning to `CCNC(=O)c1c(NC(=O)Cc2coc3ccc(CC)cc23)sc2c1CCCC2`, the “activity change, positive = activation” value is inactive: -18.9%.

For `CC(C)(C)C(=O)C(Oc1ccc(Cl)cc1)n1ccnc1` (stereo not given), the “activity change, positive = activation” value was inactive: -10.3%.

As for `COc1cccc(C2C(C(=O)Nc3ccc(Cl)cc3)=C(C)Nc3nc4ccccc4n32)c1OC` (stereo not given), the “activity change, positive = activation” value was inactive: -21%.

In the case of `CC(=O)N1CCCc2cc(S(=O)(=O)N3CCN(c4ccccc4F)CC3)ccc21`, the “activity change, positive = activation” value was inactive: -34.4%.

`CCCCNC(=O)c1c(-c2ccccc2)c(-c2ccccc2)nn(C)c1=O`: the “activity change, positive = activation” value is inactive: -13.7%.

As to `Cc1oc2ncn(CC(C)C)c(=O)c2c1C(=O)N(CCN(C)C)Cc1ccccc1`, the “activity change, positive = activation” value was inactive: 4.37%.

`Cc1ccc2c(c1)N(C(=O)N1CCC(C(=O)NCc3ccccc3C)CC1)CC(C)O2` (stereo not given): the “activity change, positive = activation” value is inactive: -21.6%.

Consider `CCCCNC(=O)c1ccc2c(c1)N(CC)C(=O)c1ccccc1S2`, for which the “activity change, positive = activation” value was inactive: -21.9%.

Turning to `CCCc1nnc(NC(=O)c2cc(=O)c3ccccc3o2)s1`, the Potency is active: 3.98 µM.

For `CC(=O)N1c2ccc(S(=O)(=O)NCc3ccccc3Cl)cc2CC1C` (stereo not given), the “activity change, positive = activation” value is inactive: -29%.

With `NC(=NCCCCCCN=C(N)/N=C(\N)Nc1ccc(Cl)cc1)/N=C(\N)Nc1ccc(Cl)cc1`, the “activity change, positive = activation” value was inactive: -28.7%.

Consider `CCOC(=O)c1c(C)n(-c2ccccc2)c2ccc(OC(=O)COc3ccccc3)cc12`, for which the “activity change, positive = activation” value was inactive: -1.36%.

For `COc1ccc(N2CCN(C(=O)C3CCCN(C(=O)c4cc5sccc5n4C)C3)CC2)cc1` (stereo not given), the “activity change, positive = activation” value is inactive: -27.8%.

For the compound `CCCCNC(=O)CN1C(=O)c2cccnc2Sc2ccccc21`, the “activity change, positive = activation” value is inactive: -7.03%.

As for `CC1=C(C(=O)Nc2cccnc2)C(c2cccc(F)c2)n2nc(SCc3ccccc3F)nc2N1` (stereo not given), the “activity change, positive = activation” value is inactive: -17.9%.

In the case of `COc1ccc(C)cc1NC(=O)c1cc(S(=O)(=O)N2CCOCC2)cn1C`, the “activity change, positive = activation” value is inactive: -11.7%.

On to `O=C(CSc1nc(=O)[nH]c2c1CCCC2)NCc1ccccc1Cl`, for which the “activity change, positive = activation” value was inactive: -2.72%.

Turning to `Cn1c(=O)c2c(nc(SCC(=O)Nc3ccc(F)cc3)n2Cc2ccccc2F)n(C)c1=O`, the “activity change, positive = activation” value was inactive: -11.2%.

On to `COc1ccc(C(CNC(=O)c2ccc(F)cc2)N2CCCC2)cc1` (stereo not given), for which the “activity change, positive = activation” value is inactive: -7.47%.

With `Cc1cc(C)cc(NC(=O)N2CCC(CN3CCCCCC3)CC2)c1`, the “activity change, positive = activation” value was inactive: -1.55%.

On to `CCCSc1ncc(Cl)c(C(=O)Nc2c(C(=O)c3ccc(C)cc3)oc3ccccc23)n1`, for which the “activity change, positive = activation” value was inactive: -9.12%.

With `CCC(=O)N1c2ccc(S(=O)(=O)CCC(=O)N3CCN(c4cc(C)ccc4C)CC3)cc2CC1C` (stereo not given), the “activity change, positive = activation” value is inactive: -24.6%.

On to `CCOc1ccc2nc(NC(=O)c3nc(SCc4ccccc4C)ncc3Cl)sc2c1`, for which the “activity change, positive = activation” value is inactive: -5.01%.

Regarding `COc1cc(N2CCN(C)CC2)ccc1Nc1nc(N)c(C(=O)c2c(Cl)cccc2Cl)s1`, the “activity change, positive = activation” value is inactive: -6.58%.

As for `COc1ccc(-n2c(SCC(N)=O)nc3c(oc4ccccc43)c2=O)cc1`, the “activity change, positive = activation” value is inactive: -16.2%.

Regarding `Cc1ccc(-c2onc(C)c2C)cc1S(=O)(=O)N1CCOc2ccc(Cl)cc21`, the “activity change, positive = activation” value was inactive: -91.4%.

In the case of `Cc1ccccc1OCC(O)CO` (stereo not given), the “activity change, positive = activation” value is inactive: 3.84%.

With `O=C(Cc1cccs1)Nc1c(C(=O)Nc2ccc(F)cc2)oc2ccccc12`, the “activity change, positive = activation” value is inactive: 16.8%.

For `CC(=O)N1CCc2c(sc3c2c(=O)n(Cc2ccccc2)c(=O)n3Cc2ccccc2F)C1`, the “activity change, positive = activation” value was inactive: -44%.
